This assay has as its target T1, Hemagglutinin (HA) of A/Puerto Rico/8/34(H1N1) virus (Influenza A virus, UniProt P03452).
T1 construct: host or cells: human cells
The assay can be described thus: SDS-PAGE of hemagglutinin reacted with EGCG. The following applies: 100 μg/10 μl EGCG, 2 μg/10 μl hemagglutinin, room temperature 2 hours.

With (−)-epigallocatechin gallate [EGCG], the “molecular weight / band size of hemagglutinin” value is “increased the molecular weight of the protein”.

Source of the values: patent US20180177860A1, “VACCINE […] I[…] GREEN TEA EXTRACT, AND PREPARATION METHOD THEREFOR” (priority 2015, published 2018).
